# Reference: patent US20130183237A1 (priority 2007, published 2013)
# How the values were obtained:
# recombinant α-thrombin = recombinant α-thrombin (Homo sapiens, UniProt P00734); conditions: for loss of inhibitory activity after 60 min of incubation with thrombin: 24° C., 30-fold excess of inhibitor (100 nM, thrombin […])
# [1] = test system: plasmin, TPA, urokinase, APC, FXIIa, FXIa, FXa, FIXa, FVIIa, kallikrein, chymotrypsin and trypsin
# thrombin = thrombin (Homo sapiens, UniProt P00734)
# [2] = target: human plasma derived thrombin (Homo sapiens, UniProt P00734); assay: biochemical; conditions: IC50 (nM)
Structure (SMILES),pre-incubation after which steady state equilibrium inhibition was achieved (recombinant α-thrombin),loss of inhibitory activity after 60 min of incubation with thrombin (recombinant α-thrombin),inhibition of serine proteases other than thrombin ([1]; 1 μM of s-variegin),concentration for similar ~30% inhibition of thrombin lower than for the most susceptible other proteases ([1]; ~3.3 nM against thrombin vs 100 μM),"cleavage by thrombin (thrombin; 37° C., 180 min incubation)","s-variegin cleaved by thrombin (thrombin; 60 min of incubation, 24° C., 30-fold excess of s-variegin (150 μM, thrombin 5 μM))",IC50 ([2]; pre-incubation time 30 min),IC50 ([2]; pre-incubation time 120 min (1 mg/ml BSA)),IC50 ([2]; pre-incubation time […])
CC[C@H](C)[C@H](NC(=O)[C@H](C)NC(=O)[C@H](CCC(=O)O)NC(=O)[C@H](Cc1ccccc1)NC(=O)[C@H](CC(=O)O)NC(=O)[C@H](Cc1ccccc1)NC(=O)[C@@H]1CCCN1C(=O)[C@@H]1CCCN1C(=O)[C@H](C)NC(=O)[C@@H](NC(=O)[C@H](CCCCN)NC(=O)[C@H](Cc1c[nH]cn1)NC(=O)[C@H](CCSC)NC(=O)[C@H](CCCCN)NC(=O)[C@@H]1CCCN1C(=O)[C@@H](N)CCC(=O)O)[C@@H](C)O)C(=O)N1CCC[C@H]1C(=O)N[C@@H](CCC(=O)O)C(=O)N[C@@H](CCC(=O)O)C(=O)N[C@@H](Cc1ccc(O)cc1)C(=O)N[C@@H](CC(C)C)C(=O)N[C@@H](CC(=O)O)C(=O)N[C@@H](CC(=O)O)C(=O)N[C@@H](CCC(=O)O)C(=O)N[C@@H](CO)C(=O)O [EP25],~10 min,no loss of inhibitory activity,–,–,–,–,–,–,–
CC[C@H](C)[C@H](NC(=O)[C@H](C)NC(=O)[C@H](CCC(=O)O)NC(=O)[C@H](Cc1ccccc1)NC(=O)[C@H](CC(=O)O)NC(=O)[C@H](Cc1ccccc1)NC(=O)[C@@H]1CCCN1C(=O)[C@@H]1CCCN1C(=O)[C@H](C)NC(=O)[C@@H](NC(=O)[C@H](CCCCN)NC(=O)[C@H](Cc1c[nH]cn1)NC(=O)[C@H](CCSC)NC(=O)[C@H](CCCCN)NC(=O)[C@@H]1CCCN1C(=O)[C@H](CCC(=O)O)NC(=O)[C@H](C)NC(=O)[C@@H](NC(=O)[C@H](CC(=O)O)NC(=O)CNC(=O)[C@H](CCC(N)=O)NC(=O)[C@H](CC(=O)O)NC(=O)[C@@H](N)CO)C(C)C)[C@@H](C)O)C(=O)N1CCC[C@H]1C(=O)N[C@@H](CCC(=O)O)C(=O)N[C@@H](CCC(=O)O)C(=O)N[C@@H](Cc1ccc(O)cc1)C(=O)N[C@@H](CC(C)C)C(=O)N[C@@H](CC(=O)O)C(=O)N[C@@H](CC(=O)O)C(=O)N[C@@H](CCC(=O)O)C(=O)N[C@@H](CO)C(=O)O [s-variegin],–,no loss of inhibitory activity,≤ 5%,at least 4 orders of magnitude,almost complete,~30%,–,–,–
CC[C@H](C)[C@H](NC(=O)[C@H](C)NC(=O)[C@H](CCC(=O)O)NC(=O)[C@H](Cc1ccccc1)NC(=O)[C@H](CC(=O)O)NC(=O)[C@H](Cc1ccccc1)NC(=O)[C@@H]1CCCN1C(=O)[C@@H]1CCCN1C(=O)[C@H](C)NC(=O)[C@@H](NC(=O)[C@H](CCCCN)NC(=O)[C@H](Cc1c[nH]cn1)NC(=O)[C@@H](N)CCSC)[C@@H](C)O)C(=O)N1CCC[C@H]1C(=O)N[C@@H](CCC(=O)O)C(=O)N[C@@H](CCC(=O)O)C(=O)N[C@@H](Cc1ccc(O)cc1)C(=O)N[C@@H](CC(C)C)C(=O)N[C@@H](CC(=O)O)C(=O)N[C@@H](CC(=O)O)C(=O)N[C@@H](CCC(=O)O)C(=O)N[C@@H](CO)C(=O)O [MH22],–,–,–,–,–,–,14.9 ± 0.77 nM,14.6 ± 2.32 nM,34.5 ± 4.59 nM
